{"source": "ChEMBL document CHEMBL4888484", "about": "“Replenishing the malaria drug discovery pipeline: Screening and hit evaluation of the MMV Hit Generation Library 1 (HGL1) against asexual blood stage Plasmodium falciparum ,using a nano luciferase reporter read-out” (2022)", "note": "The whole screen tested about 150,000 compounds, of which about 540 (0.36%) showed an effect of 50% or more. The list shows a part of the results."}
{"tested_on": "Plasmodium falciparum", "assay": "Primary screen in NF54 nanoGlo assay, in single point, at 2uM, 72h; a lower Z score goes with more inhibition", "type": "functional, Erythrocyte", "conditions": "timepoint 72 hour", "units": {"% Inhibition": "%"}}
{"compound": "Cc1cccc(OCCN2CCCC(C3(C)NC(=O)N(C)C3=O)C2)c1", "note": "(stereo not drawn)", "% Inhibition": -12, "Z score": 1.2}
{"compound": "COc1ccc([C@@H](NS(=O)(=O)c2c(C)n[nH]c2C)C2CC(O)C2)cn1", "note": "(stereo partly drawn)", "% Inhibition": -6, "Z score": 1.21}
{"compound": "CCOC(=O)c1sc(-n2nc(C)c(Cc3ccccc3Cl)c2O)nc1C", "% Inhibition": -9, "Z score": 1.2}
{"compound": "O=C1c2ccc(Oc3ccc(Oc4ccc5c(c4)C(=O)N(CCCO)C5=O)cc3)cc2C(=O)N1CCCO", "% Inhibition": -3, "Z score": 0.47}
{"compound": "Nc1nc2cc(C(=O)N3CCc4c(nc[nH]c4=O)C3)ccc2s1", "% Inhibition": -21, "Z score": 3.93}
{"compound": "CCn1c(COC(=O)C(C)N2C(=O)C3CCCCC3C2=O)nc2cc(S(=O)(=O)N(C)C)ccc21", "note": "(stereo not drawn)", "% Inhibition": -9, "Z score": 1.54}
{"compound": "N#C[C@@H](NS(=O)(=O)CCC1CC1)C1CC1", "% Inhibition": -1, "Z score": 0.13}
{"compound": "O=S(=O)(c1ccc(F)cc1)N1CCc2nnc(C3CC3)n2CC1", "% Inhibition": -6, "Z score": 1.09}
{"compound": "Cc1cccc(C)c1NC(=O)c1cccc(N2C(=O)C3C4CC(c5ccccc5)C(C4)C3C2=O)c1", "note": "(stereo not drawn)", "% Inhibition": 26, "Z score": -2.95}
{"compound": "c1cnc2nc(N3CC4CCC3C4)c(N3CC4CCC3C4)nc2c1", "note": "(stereo not drawn)", "% Inhibition": 20, "Z score": -2.28}
{"compound": "Cc1n[nH]c(C)c1Cc1nncn1-c1cccc2ccccc12", "% Inhibition": -6, "Z score": 0.75}
{"compound": "Cc1cc(C(=O)NCCCN2CCOCC2)on1", "% Inhibition": -9, "Z score": 1.34}
{"compound": "COc1cc(-c2nc(C)cnc2C)cc2c1OCCNC2", "% Inhibition": -4, "Z score": 0.54}
{"compound": "Cc1nnc(NCCn2cccn2)c(C#N)c1C", "% Inhibition": -8, "Z score": 1.03}
{"compound": "Cc1ccccc1CNC(=O)c1ccc2c(c1)NC(=O)[C@@H]1CCCCN21", "% Inhibition": -10, "Z score": 1.38}
{"compound": "O=C(Nc1nc2ccccc2s1)[C@@H]1CCCCN1S(=O)(=O)c1ccc(Cl)s1", "% Inhibition": 11, "Z score": -1.23}
{"compound": "Cc1ccc(N2CCC(N3C(=O)[C@H]4CCCN4C3=O)CC2)nc1", "% Inhibition": -8, "Z score": 0.81}
{"compound": "Cc1n[nH]c(=O)c(C(=O)Nc2ccc(F)cc2F)c1C", "% Inhibition": -8, "Z score": 1.64}
{"compound": "CN1CCN(c2nc(N(C)C)c3ccccc3n2)CC1", "% Inhibition": -6, "Z score": 0.88}
{"compound": "C[C@H]1CCc2sc(C(=O)N3CCn4nc(CCC(=O)O)cc4C3)cc2C1", "% Inhibition": 4, "Z score": -0.51}
{"compound": "Cc1c(C(=O)N2CCN(C3CCC3)C[C@H](C)C2)cnn1C(C)C", "% Inhibition": -1, "Z score": 0.26}
{"compound": "CCOc1cc(CNCc2ccccc2)ccc1OCCOc1ccc(F)cc1", "% Inhibition": 6, "Z score": -0.74}
{"compound": "CCN(CC)C(=O)CCc1ccc(OC)cc1", "% Inhibition": -1, "Z score": 0.18}
{"compound": "Cc1oc2ncn(CC(C)C)c(=O)c2c1C(=O)Nc1ccccn1", "% Inhibition": -8, "Z score": 1.45}
{"compound": "C[C@H](CC(=O)O)CC(=O)N1CC2(CCOCC2)c2ccc(Br)cc21", "% Inhibition": -12, "Z score": 1.11}
{"compound": "Cn1nccc1S(=O)(=O)NC1CCCC(C(F)(F)F)C1", "note": "(stereo not drawn)", "% Inhibition": 2, "Z score": -0.29}
{"compound": "CC[C@H](NS(=O)(=O)c1cnn(C2CCCC2)c1)c1nc(C)c[nH]1", "% Inhibition": -11, "Z score": 1.43}
{"compound": "O=C(c1cccn2c(=O)c3cc(Cl)ccc3nc12)N1CCN(c2cccc(Cl)c2)CC1", "% Inhibition": -10, "Z score": 1.23}
{"compound": "O[C@H]1[C@H](NCC2CCCC2)[C@H]2CO[C@H](O2)[C@@H]1n1cnc2ccccc21", "% Inhibition": 9, "Z score": -1.09}
{"compound": "COCc1nccc(N2CCC(N(C)C)C2C)n1", "note": "(stereo not drawn)", "% Inhibition": -10, "Z score": 1.04}
{"compound": "COc1ccc(Cl)cc1NC(=O)c1ccc(OC)c(-c2ccccn2)c1", "% Inhibition": -19, "Z score": 1.94}
{"compound": "COc1ccccc1-c1cc(CN(CC(C)C)C(=O)C2CCCC2)no1", "% Inhibition": -13, "Z score": 1.64}
{"compound": "Cc1nc(NC(C)C)sc1C(=O)n1ccnc1", "% Inhibition": -13, "Z score": 1.64}
{"compound": "CCc1nnc2nc(N3CCN(C(=O)c4ccc(C)cc4)CC3)cc(C)n12", "% Inhibition": -14, "Z score": 2.7}
{"compound": "CCOC(=O)C[C@H]1C(=O)NCCN1C1CCCCC1", "% Inhibition": -9, "Z score": 1.62}
{"compound": "CCS(=O)(=O)N(C)C1CCN(C(=O)CCC2CCCCC2)CC1", "% Inhibition": -8, "Z score": 1.01}
{"compound": "CC(C)(C)c1cnc(COc2ccccc2-c2nnc[nH]2)o1", "% Inhibition": -11, "Z score": 1.51}
{"compound": "C#CCN1CCC[C@@H]1COC(=O)c1cnn(C)c1C", "% Inhibition": 38, "Z score": -3.85}
{"compound": "O=C(NCCCN1CCCC1=O)NC1CCCC1", "% Inhibition": -5, "Z score": 0.53}
{"compound": "COC(=O)c1ccc(N2C[C@@H]3OC(=O)N(Cc4ccccn4)[C@@H]3C2)nc1", "% Inhibition": -11, "Z score": 1.16}
{"compound": "Cc1sc(-c2ccccc2F)nc1C(=O)Nc1nc2ccccc2[nH]1", "% Inhibition": 1, "Z score": -0.09}
{"compound": "CCOC(=O)CN1C(=O)C2(NC(C)C3C(=O)N(c4cccc(Cl)c4)C(=O)C32)c2ccccc21", "note": "(stereo not drawn)", "% Inhibition": -2, "Z score": 0.35}
{"compound": "COc1cc(F)c(C(=O)N(C2CC2)[C@@H](C)c2cccnc2)cc1OC", "% Inhibition": -6, "Z score": 0.88}
{"compound": "Cc1cc(C(=O)NCc2nccn2CCCc2ccccc2)on1", "% Inhibition": 10, "Z score": -1.56}
{"compound": "Cn1cncc1C(=O)NCC1CCN(C(=O)C(=O)c2cccn2C)CC1", "% Inhibition": -14, "Z score": 1.85}
{"compound": "CC(=O)N[C@@H](c1ccccc1)c1ccc2c(c1)CCCO2", "% Inhibition": 5, "Z score": -0.87}
{"compound": "COCC(=O)N1CCc2cc(NC(=O)c3cnc4ccccc4n3)ccc21", "% Inhibition": -16, "Z score": 1.99}
{"compound": "CCCc1cncnc1-c1cccc(C(=O)N2Cc3nc(C)[nH]c(=O)c3C2)c1", "% Inhibition": 4, "Z score": -0.46}
{"compound": "Cc1nc(C)c(F)c(NCc2sncc2Br)n1", "% Inhibition": -13, "Z score": 1.42}
{"compound": "COC(=O)C1CCC(NC(=O)COC2CCCC(C)C2)CC1", "note": "(stereo not drawn)", "% Inhibition": -13, "Z score": 1.96}
{"compound": "O=C1NCCCn2cc(S(=O)(=O)N3CCN(c4ccc(Cl)cc4)CC3)cc21", "% Inhibition": -3, "Z score": 0.38}
{"compound": "Clc1cccc(C2(c3nnc(-c4cnccn4)o3)CCOCC2)c1", "% Inhibition": -6, "Z score": 0.78}
{"compound": "CC(C)ONC(=O)[C@@H]1Cc2cc(F)ccc2NC1=O", "% Inhibition": -8, "Z score": 0.88}
{"compound": "Cc1oc(-c2ccccc2Cl)nc1Cn1cccc1C1=N[C@H](c2ccccc2)CO1", "% Inhibition": -2, "Z score": 0.44}
{"compound": "COC[C@H]1CCCN1[C@@H]1[C@H](O)[C@H](CO)O[C@@H]1CNC(=O)Nc1ccc(OC(F)(F)F)cc1", "% Inhibition": 16, "Z score": -1.86}
{"compound": "Cc1cc(C(=O)Nc2cccc(C(N)=O)n2)on1", "% Inhibition": 29, "Z score": -3.91}
{"compound": "COc1ccc(NC(=O)COC(=O)[C@@H](Nc2ccc(C(F)(F)F)cc2Cl)C(C)C)cc1S(N)(=O)=O", "% Inhibition": -18, "Z score": 2.98}
{"compound": "Cc1cc(C)c(CNC(=O)c2csc(C)n2)c(=O)[nH]1", "% Inhibition": -10, "Z score": 1.6}
{"compound": "COc1cc(F)c(S(=O)(=O)NC(=O)CCn2ccnn2)c(F)c1", "% Inhibition": -14, "Z score": 1.27}
{"compound": "Cc1cccc(C)c1-n1c(=O)n(C[C@H]2CCCO2)c(=O)c2c1ncn2Cc1cccc(Cl)c1", "% Inhibition": -7, "Z score": 0.69}
{"compound": "Cc1oc(Br)cc1C(=O)NS(=O)(=O)C1C[C@@H]2CC[C@H]1C2", "note": "(stereo partly drawn)", "% Inhibition": -3, "Z score": 0.32}
{"compound": "Cc1ccc(Cc2ccccc2C(=O)N[C@@H]2CN[C@H](C(=O)O)C2)cc1F", "% Inhibition": 7, "Z score": -0.92}
{"compound": "Cc1ccc(N(C(=O)Cn2nnnc2N)C2(C(=O)Nc3ccccc3C)CCCCC2)cc1", "% Inhibition": 8, "Z score": -0.93}
{"compound": "O=C(CN1CCN(C(=O)Nc2ccccc2)CC1=O)N1CCN(c2cccc(Cl)c2)CC1", "% Inhibition": -3, "Z score": 0.58}
{"compound": "c1ccc(-c2ncn(C[C@@H](c3ccco3)N3CCCC3)c2-c2ncc[nH]2)cc1", "% Inhibition": -11, "Z score": 1.3}
{"compound": "Cc1nsc(C)c1NC(=O)c1ccoc1C1CC1", "% Inhibition": 8, "Z score": -0.96}
{"compound": "O=C(Nc1cccnc1)N1CCC(Oc2ccc(Cl)cc2)CC1", "% Inhibition": -7, "Z score": 1.06}
{"compound": "CC1(C)CCCc2sc(NC(=O)NCc3cccnc3N)nc21", "% Inhibition": 32, "Z score": -3.61}
{"compound": "CN(CC(C)(C)O)S(=O)(=O)c1cc(Br)ccc1F", "% Inhibition": -16, "Z score": 1.93}
{"compound": "O=C(CCNC(=O)c1cnn(Cc2ccccc2)c1)N[C@H]1CCS(=O)(=O)C1", "% Inhibition": -9, "Z score": 1.05}
{"compound": "O=C(N[C@H]1CCCN(C2CCCCC2)C1=O)c1cc(C2CC2)on1", "% Inhibition": -7, "Z score": 0.98}
{"compound": "COC[C@H]1CCN(C(=O)NCc2cc(OC)ccn2)C1", "% Inhibition": 0, "Z score": 0.05}
{"compound": "O=C(Cc1cccs1)NC[C@H]1CCCO1", "% Inhibition": -3, "Z score": 0.35}
{"compound": "O=C(Nc1cccc2ncccc12)C1CCN(C2CC2)CC1", "% Inhibition": -5, "Z score": 0.65}
{"compound": "Cc1ccc(F)c(S(=O)(=O)N(C)CC(=O)NCC(F)(F)F)c1", "% Inhibition": -10, "Z score": 1.27}
{"compound": "O=C(c1cccs1)N1CCCCCCC1", "% Inhibition": -18, "Z score": 2.32}
{"compound": "COc1cccc(CC(=O)N2CCC3(CC2)NC(c2ccc(C)cc2)=NO3)c1", "% Inhibition": -7, "Z score": 0.86}
{"compound": "O=C(O)c1nnn(Cc2ccccc2F)c1-c1cccnc1", "% Inhibition": 1, "Z score": -0.06}
{"compound": "O[C@]1(C(F)(F)F)CC(c2ccccc2)=NN1c1cccc2cccnc12", "% Inhibition": 1, "Z score": -0.2}
{"compound": "CCN(CC1CC1)S(=O)(=O)NCc1ccc(N2CCO[C@@H](C)C2)nc1", "% Inhibition": 32, "Z score": -3.6}
{"compound": "CC[C@H]1CN(Cc2ccccc2)CCN1C(=O)Nc1ccn(C)n1", "% Inhibition": -3, "Z score": 0.37}
{"compound": "CCNC(=O)[C@H](C)Nc1ncc(C(F)(F)F)cc1Cl", "% Inhibition": -20, "Z score": 1.84}
{"compound": "COc1ccc2c(c1)N1CCN(c3ccccc3OC)CC1C(C(=O)NCCN1CCCC1)C2", "note": "(stereo not drawn)", "% Inhibition": 1, "Z score": -0.15}
{"compound": "Cc1nnc(CCNC(=O)Nc2cc(C)c(F)cc2Cl)s1", "% Inhibition": -12, "Z score": 1.92}
